In the supplement of paper PMC11417369:
This is one part of the list.

Test system: PfAP2-HC AP2 domain (GST-tagged)
Experiment: gcPBM binding intensity (ln(normalized median fluorescence intensity)); higher = stronger DNA binding
Summary of the method: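 Probes on an Agilent 4 × 180k array were primer-extended, double-stranded and 36 bp long, taken from intergenic genomic regions, with negative controls added. GST-tagged P. falciparum DNA-binding domains from E. coli, about 25 μg on average, were applied to the array for 1 h in 1× PBS containing 1% milk, 0.2 mg/ml BSA, 0.5% salmon testes DNA and 0.03% Triton X-100. Binding intensity, obtained after Alexa488 anti-GST antibody detection and a 488 nm scan, is the highest Masliner-normalised natural-log median intensity across replicate spots of either probe orientation.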

Row | Sequence | gcPBM binding intensity (ln)
1 | TTTCTATTTATTAATACATGCAAAATAAAGTAAAGT [TGCATGCA_site209] | 9.64
2 | TATATATATATATATATATTTATGTATTTATTTAAT [TGCATGCA_negctrl_site179] | 9.38
3 | ATATATATAAATAAATGTACATAAATAATATATTAT [XGTACX_site5419] | 9.8
4 | TATTGTATATAATAAACACACAATATTAAAAATATA [CACACA_site1057] | 9.75
5 | TATTTAAAAAACACATGTACGAGTATTATATATAAA [XGTACX_site6654] | 9.55
6 | AGTATATTAAAAAATACACACGTATTATATCTACAT [CACACA_site8844] | 9.92
7 | GTTCATAAATTAAACACACACACACCGCTGGATACC [CACACA_site5779] | 10.3
8 | TAATATACTTAATACACACACGAATATTTATAAATA [CACACA_site6675] | 9.94
9 | GATTCATCTAAACACCGTACATATTATATATATATA [XGTACX_site6030] | 9.65
10 | CCCCTCGAAATAATTTGTACGAATATATTGTCTGTA [XGTACX_site8308] | 9.68
11 | AAACTCAACTTATATACACACAATCTTTTTTTTTTA [CACACA_site29] | 9.81
12 | ATTGGAAAATATGTTATATATATATATATATATATG [CACACA_negctrl_site116] | 9.52
13 | TTAATTCGTACATACACACGCACATATATATATATA [CACACA_site1469] | 10.2
14 | AATAATAATAGAAACACACACACATCTTTAATAATA [CACACA_site4805] | 10.5
15 | ATATTTTTTTTCTACACACATACAAATATATATTAT [CACACA_site2359] | 10
16 | ATATTAAAATACAGTGCATGTTAAAAATATATTATA [TGCATGCA_site977] | 9.7
17 | TTATAACATCTTAAATGTACAAATATGTGCTTATTT [XGTACX_site7285] | 9.71
18 | ATGTATTTATATACTTGTACGTAAGATGTATTATAT [XGTACX_site908] | 9.8
19 | TAAAAAAAAAACATCTGTACCAATTTTTATGTATAA [XGTACX_site5196] | 9.49

Row | Sequence | gcPBM binding intensity (ln)
20 | AATAAAAGTTCACCTGTACACACATATATATATGTA [CACACA_site8500] | 9.91
21 | GGTTATAACGCACATGCACACGTAAATAAATATTAT [CACACA_site9277] | 9.81
22 | TAAATTTTAATAAATACACACAAATTTTAATTCTAT [CACACA_site6039] | 9.59
23 | ACATGCAACCATTCGGGTACAGAAATAAATATATAC [XGTACX_site4174] | 9.66
24 | CTTTTTCGCATGAAAAGTACATGAAATATATTACAT [XGTACX_site8971] | 9.37
25 | AATAACTTTTTAAACACACACACATATAAATAAATA [CACACA_site6196] | 10.4
26 | GGAGACTTTGTACAAACACACACATGAACACAATAT [CACACA_site8376] | 10
27 | TAATTTAAAAATGAACATATATATGTATGTAAATAT [TGCATGCA_negctrl_site135] | 9.8
28 | ATGTATATATTTATGTGTACTTAAATTTTTTTTTGT [XGTACX_site8179] | 9.67
29 | TTTTAATATATAGAGTAACAAATTTGTCTATTAATA [CACACA_negctrl_site1495] | 9.51
30 | TCTTCACCACGTGGAAGTACATAAAAAGATACACAA [XGTACX_site4747] | 9.55
31 | CATCTTAAATAAGAACGTACATTTTTTTTGATGAGA [XGTACX_site3462] | 9.41
32 | AAGACAAAACAAAGAAGTACATATATATATATATAT [XGTACX_site4067] | 9.74
33 | AATAATATTAACACACGTACAAAAGCAAACAACCAA [XGTACX_site7410] | 10.6
34 | ATACATTCTAATACGTGTACATATATATATATATAT [XGTACX_site1881] | 9.76
35 | TTTATATTATTATATCTTATTAATTATTTATCATTT [TGCATGCA_negctrl_site73] | 9.74
36 | TGATGCAAAATATATACACACATATATATATATATA [CACACA_site3052] | 9.69
37 | CATATACATTGTATATGTACATATATATATATATAT [XGTACX_site3772] | 9.8
38 | GATTATATATTAAAAAGTACTTTATAAATACTTCTA [XGTACX_site8992] | 9.39

Row | Sequence | gcPBM binding intensity (ln)
39 | CAAAGCATAGTATGATGTACAAATGTTCCTATAATA [XGTACX_site8642] | 9.76
40 | TCTTATTATAAAAGGAGTACATCAATTAGATGTTCC [XGTACX_site8465] | 9.32
41 | ATATATATATAATATTGTACATAGTAGACATCACAC [XGTACX_site4649] | 9.94
42 | TATATATGTATAAGAGTGCATATGCATATATGTATA [GTGCAC_site9692] | 9.83
43 | TAAAATATGGAAATCACACATTTATTAAAATATATA [CACACA_site4623] | 9.55
44 | TTATGTTTATACACTACACACATTATTCATAAAAAA [CACACA_site4637] | 9.74
45 | TATGGGTTTATATAGGTGCAATATATGTATATATAA | 9.56
46 | TATACCACCCGATATACACACTTGTAGACATCTTTT [CACACA_site4268] | 9.78
47 | ACAAAACTCTTTAATTGTACAAATATAATATAAAAA [XGTACX_site5690] | 9.6
48 | TATATAGTTTATATTTGTACATATAGACATTTATAA [XGTACX_site6414] | 9.49
49 | AACCATTGGGAAAGGGTGCACATATATATATATATA | 9.74
50 | AGCAATATTTATTAAAGTACGTAAAAAAAATTCTCA [XGTACX_site6550] | 9.62
51 | TGTTTTTAAAAATATACACACACAGATATTATATAT [CACACA_site8162] | 10.2
52 | TTTTATATTTATTTTTGTACATAAATGATCTCAAAT [XGTACX_site7768] | 9.47
53 | AAAAAAAAAAAATTATGTACATATTATATATAATGG [XGTACX_site2885] | 9.56
54 | TAAAATATGTCATGGGTGCTTCTTTTTATACCTATG [GTGCAC_site9888] | 10
55 | AAATATTATAATAATTGTACTATATATACAGTTATT [XGTACX_site1963] | 9.62
56 | ATATATATATATTTATGTACGCATTTATAGACGTAG [XGTACX_site6031] | 9.64
57 | TATGATAACCATAATTGTACAGAATGAAACGTAAAT [XGTACX_site1653] | 9.84
